Measured values reported in patent US20230357444A1 (published 2023).

B1: MCSP-G4 HLP × E1L HLP (bispecific antibody)
chain: QVQLVQSGAEVKRPGASMKVSCKASGYTFTNYYIHWVRQAPGQGLEWMGWINPNSGATNYAQKFQGRVTMTRDTSTSTVYMELSSLRSEDTAVYYCAKSWVSWFASWGQGTLVTVSSGGGGSGGGGSGGGGSELVMTQSPDSLAVSLGERATINCKSSQSVLNSSNNRNYLAWYQQKPGQPPKLLIYWASTRESGVPDRFSGSGSGTDFTLTISGLQAEDVAVYYCQQHYSTPFTFGPGTKVDIKSGGGGSEVQLLESGGGLVQPGGSLKLSCAASGFTFNKYAMNWVRQAPGKGLEWVARIRSKYNNYATYYADSVKSRFTISRDDSKNTAYLQMNNLKTEDTAVYYCVRHGNFGNSYTSYYAYWGQGTLVTVSSGGGGSGGGGSGGGGSELVVTQEPSLTVSPGGTVTLT[about 80 residues omitted here]FGGGTKLTVLHHHHHH
B2: MCSP-G4 HLP × F6A HLP (bispecific antibody)
chain: QVQLVQSGAEVKRPGASMKVSCKASGYTFTNYYIHWVRQAPGQGLEWMGWINPNSGATNYAQKFQGRVTMTRDTSTSTVYMELSSLRSEDTAVYYCAKSWVSWFASWGQGTLVTVSSGGGGSGGGGSGGGGSELVMTQSPDSLAVSLGERATINCKSSQSVLNSSNNRNYLAWYQQKPGQPPKLLIYWASTRESGVPDRFSGSGSGTDFTLTISGLQAEDVAVYYCQQHYSTPFTFGPGTKVDIKSGGGGSEVQLLESGGGLVQPGGSLKLSCAASGFTFNIYAMNWVRQAPGKGLEWVARIRSKYNNYATYYADSVKSRFTISRDDSKNTAYLQMNNLKTEDTAVYYCVRHGNFGNSYVSFFAYWGQGTLVTVSSGGGGSGGGGSGGGGSELVVTQEPSLTVSPGGTVTLT[about 80 residues omitted here]FGGGTKLTVLHHHHHH
B3: MCSP-G4 HLP × G4H HLP (bispecific antibody)
chain: QVQLVQSGAEVKRPGASMKVSCKASGYTFTNYYIHWVRQAPGQGLEWMGWINPNSGATNYAQKFQGRVTMTRDTSTSTVYMELSSLRSEDTAVYYCAKSWVSWFASWGQGTLVTVSSGGGGSGGGGSGGGGSELVMTQSPDSLAVSLGERATINCKSSQSVLNSSNNRNYLAWYQQKPGQPPKLLIYWASTRESGVPDRFSGSGSGTDFTLTISGLQAEDVAVYYCQQHYSTPFTFGPGTKVDIKSGGGGSEVQLLESGGGLVQPGGSLKLSCAASGFTFNRYAMNWVRQAPGKGLEWVARIRSKYNNYATYYADSVKGRFTISRDDSKNTAYLQMNNLKTEDTAVYYCVRHGNFGNSYLSYFAYWGQGTLVTVSSGGGGSGGGGSGGGGSELVVTQEPSLTVSPGGTVTLT[about 80 residues omitted here]FGGGTKLTVLHHHHHH
B4: MCSP-F9 HLP × G4H HLP (bispecific antibody)
chain: EVQLQESGPGLVKPSETLSLTCVVSGGSISSSNWWSWVRQPPGKGLEWLGTIYYNGNTYYNPSLKSRVTISVDTSKNQFSLRLSSVTAADTAVYYCAKSWVSWFASWGQGTLVTVSSGGGGSGGGGSGGGGSELVMTQSPDSLAVSLGERATINCKSSQSVLSSSNNKNYLNWYQQKPGQPPKLLIYWASTRESGVPDRFSGSGSGTDFTLTISSLQAEDVAVYYCQQHYSVPFTFGPGTKVDIKSGGGGSEVQLLESGGGLVQPGGSLKLSCAASGFTFNRYAMNWVRQAPGKGLEWVARIRSKYNNYATYYADSVKGRFTISRDDSKNTAYLQMNNLKTEDTAVYYCVRHGNFGNSYLSYFAYWGQGTLVTVSSGGGGSGGGGSGGGGSELVVTQEPSLTVSPGGTVTLT[about 80 residues omitted here]FGGGTKLTVLHHHHHH

The binders below were run against T1, human CD3 (native CD3 complex on human T cells) (human, UniProt P07766) (assay: FACS, HPB-ALL).
T1 construct: whole, on cells; also called human CD3+ T cell line HPB-ALL; human CD3 positive PBMC
T1 sequence (P07766 23-207, one chain of several): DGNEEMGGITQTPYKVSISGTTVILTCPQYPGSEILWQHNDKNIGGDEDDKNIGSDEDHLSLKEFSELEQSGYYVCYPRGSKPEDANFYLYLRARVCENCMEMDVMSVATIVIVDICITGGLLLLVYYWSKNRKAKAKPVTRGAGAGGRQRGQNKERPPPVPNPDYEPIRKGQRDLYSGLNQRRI

Binding result, binds:
B1
B2
B3
B4
